Results taken from the supplement of paper PMC4604168 (melanoma cell lines).
The list shows a part of the results. Most values come without repeats; read them as rough.

The compounds below were run on WM1716 (assay: cell count relative to DMSO control; melanoma cells; higher = more viable cells). Conditions: library dose: low library concentration; 72 h.
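Note: cell number obtained by counting DAPI-stained nuclei in high-throughput microscope images with image analysis software, screen run in 1,536-well plates.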

Structure (SMILES) | cell count [%]
CC(=O)O[C@@]12CO[C@@H]1C[C@H](O)[C@@]1(C)C(=O)[C@H](O)C3=C(C)[C@@H](OC(=O)[C@H](O)[C@@H](NC(=O)OC(C)(C)C)c4ccccc4)C[C@@](O)([C@@H](OC(=O)c4ccccc4)[C@H]21)C3(C)C [Docetaxel] + Nc1ccn([C@@H]2O[C@H](CO)[C@@H](O)C2(F)F)c(=O)n1 [gemcitabine] (first compound 0.0001 µM, partner dose 0.0004 µM) | 31
Nc1ncn([C@H]2C[C@H](O)[C@@H](CO)O2)c(=O)n1 [decitabine] + O=C(O)C(=O)Nc1sc2c(c1C(=O)O)CCNC2 [TCS401] (first compound 0.1 µM, partner dose 1.66667 µM) | 82.2
CO[C@H]1C[C@@H]2CC[C@@H](C)[C@@](O)(O2)C(=O)C(=O)N2CCCC[C@H]2C(=O)O[C@H]([C@H](C)C[C@@H]2CC[C@@H](OCCO)[C@H](OC)C2)CC(=O)[C@H](C)/C=C(\C)[C@@H](O)[C@@H](OC)C(=O)[C@H](C)C[C@H](C)/C=C/C=C/C=C/1C [everolimus] + CC(=O)c1c(C)c2cnc(Nc3ccc(N4CCNCC4)cn3)nc2n(C2CCCC2)c1=O [palbociclib] (first compound 0.02 µM, partner dose 0.04 µM) | 64
CC(=O)O[C@@]12CO[C@@H]1C[C@H](O)[C@@]1(C)C(=O)[C@H](O)C3=C(C)[C@@H](OC(=O)[C@H](O)[C@@H](NC(=O)OC(C)(C)C)c4ccccc4)C[C@@](O)([C@@H](OC(=O)c4ccccc4)[C@H]21)C3(C)C [Docetaxel] + Oc1nc(-c2ccc(C(F)(F)F)cc2)nc2c1CSCC2 [XAV939] (first compound 0.0001 µM, partner dose 2 µM) | 21
